Experimental data reported in PubChem BioAssay AID485364 (National Center for Advancing Translational Sciences (NCATS), 2010).
The campaign covered roughly 360,000 compounds. About 11,000 (3.1%) were called active. The shares of active, inactive and inconclusive entries below differ from those in the screen. Calls follow the shape of the dose curve; as a rule, active = well fitted inhibition curve with a large enough effect; inconclusive = small, poorly fitted or top-dose-only effect; inactive = no such curve, though single readings can be large or run the other way. No potency is given beside an inconclusive call; the fits are too rough.

target: Schistosoma mansoni thioredoxin glutathione reductase (TGR) (UniProt Q962Y6); experiment: qHTS Assay for the Inhibitors of Schistosoma Mansoni Peroxiredoxins; conditions: purified TGR, DTNB reduction, TNB absorbance 405 nm; activity change, negative = inhibition: at 114 µM (top of the series) unless noted; also: nearly all actives have a fitted effect of over 60% in size
Procedure, shortened: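 TGR 20 nM + NADPH 100 uM (dispensed conc.), cpd preinc 15 min RT; start with NADPH (500 uM addition) then DTNB (15 mM addition). Kinetic TNB absorbance, 405 nm filter. Four-parameter Hill fit across titration.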
% is scaled to controls: 0 for no effect and ±100 for the full control effect; potency is read from the fitted curve at half-maximal effect; tags tell the direction and shape of the fitted curve.

| SMILES | Potency | activity change, negative = inhibition |
| --- | --- | --- |
| C/C(=N/NS(=O)(=O)c1ccc(Br)cc1)c1ccc(C)o1 | inconclusive [inhibitor, partial curve] |  |
| O=C(O)Cc1csc(Nc2cccc(Cl)c2)n1 |  | inactive: -26.1% |
| CO/N=C(\C(=O)N[C@@H]1C(=O)N2C(C(=O)O)=C(COC(N)=O)CS[C@H]12)c1ccco1 | inconclusive [inhibitor, partial curve] |  |
| ClCc1csc(-c2ccccc2Cl)n1 | inconclusive [inhibitor, partial curve] |  |
| CC(C)[C@H](NC(=O)c1c(F)cccc1F)C(=O)Nc1cccc(Br)c1 | inconclusive [inhibitor, single point] |  |
| COC(=O)C1C(O)=C(C(C)=N)C(=O)CC1(C)C (stereo not given) | inconclusive [inhibitor, full curve, poor fit] |  |
| O=C1OC(/C(=C\Nc2ccc(F)cc2F)[N+](=O)[O-])c2ccccc21 (stereo not given) | active: 11.2 µM |  |
| COc1ccc2c(c1)NC(c1cccnc1)=NC(c1ccc(F)cc1)=N2 |  | inactive: 9.69% |
| Cc1ccc(-n2nnnc2C(Cl)(Cl)c2nnnn2-c2ccc(C)cc2)cc1 | active: 17.8 µM |  |
| O=C(Nc1nnc(C2CC2)s1)C1Cc2ccccc2CN1C(=O)c1ccco1 (stereo not given) | active: 12.6 µM |  |
| O=C(O)c1cccc(NC(=O)c2ccc3c(c2)C(=O)N(Cc2ccco2)C3=O)c1 | inconclusive [inhibitor, partial curve] |  |
| CN(C)S(=O)(=O)c1cccc(NC(=O)C2Cc3ccccc3CN2C(=O)c2ccco2)c1 (stereo not given) | active: 17.8 µM |  |
| O=C(O)c1cc(NN=C2c3ccccc3-c3ccccc32)ccc1Cl | inconclusive [inhibitor, partial curve] |  |
| CSc1nc(SC(C)C(=O)O)c2c3c(sc2n1)COC(C)(C)C3 (stereo not given) |  | inactive: -8.18% |
| C#CCOCCOCCOCCNc1nc(N2CCN(C(=O)Cn3cc(CCCN=C(N)N)nn3)CC2)nc(N2CCN(C(=O)[C@H]([C@@H](C)CC)n3cc(CCCN=C(N)N)nn3)CC2)n1 | inconclusive [inhibitor, partial curve] |  |
| CCCCNc1c2c(nc3c(-c4ccccc4)c(C)nn13)CCC2 |  | inactive: -0.282% |
| O=C(Nc1ccc(C2CC2(Cl)Cl)cc1)c1cccc([N+](=O)[O-])c1 (stereo not given) | inconclusive [inhibitor, partial curve, poor fit] |  |
| Cc1cc2cc(C(c3nnnn3C3CCCC3)N(Cc3cccnc3)Cc3ccco3)c(=O)[nH]c2cc1C (stereo not given) | inconclusive [inhibitor, partial curve, poor fit] |  |

| SMILES | Potency | activity change, negative = inhibition |
| --- | --- | --- |
| O=C(O)c1ccc(/C=N/Nc2ccc(S(=O)(=O)N3CCCC3)cc2[N+](=O)[O-])cc1 | inconclusive [inhibitor, partial curve] |  |
| COc1ccccc1N1CCN(C(=O)c2cc(C(C)(C)C)oc2C)CC1 | inconclusive [inhibitor, single point] |  |
| COc1ccccc1NC(=O)c1c(N=Cc2c(O)ccc3ccccc23)cnn1C | active: 50.1 µM |  |
| CC(/C=C/c1ccco1)=N\NC(=O)C(O)c1ccccc1 (stereo not given) | inconclusive [inhibitor, partial curve] |  |
| c1coc(Cn2nnnc2CN2CCN(C3CCCC3)CC2)c1 | active: 31.6 µM |  |
| CCn1cc(C(=O)NCc2ccc(C)cc2)c(=O)c2cc(S(=O)(=O)N3CCc4ccccc4C3)ccc21 |  | inactive: 12.2% |
| Cc1csc2nc(COC(=O)CNC(=O)c3ccccc3Cl)cc(=O)n12 |  | inactive: -1.18% |
| S=C(NCc1ccco1)Nc1ccc(Br)cn1 | inconclusive [inhibitor, full curve, poor fit] |  |
| Cc1cc(C)c(S(=O)(=O)c2c(C)cccc2C)c(Cl)n1 |  | inactive: 5.82% |
| COc1ccc(CN(Cc2ccco2)c2cnc(S(C)(=O)=O)nc2C(=O)Nc2ccc(C)cc2C)cc1 | inconclusive [inhibitor, full curve, poor fit] |  |
| COc1ccc(C(=O)C(C)[n+]2ccc(C)c3ccccc32)cc1[N+](=O)[O-] (stereo not given) | inconclusive [inhibitor, single point] |  |
| N#Cc1ccsc1NC(=O)C1CCN(C(=O)c2ccc(Cl)cc2)CC1 | inconclusive [inhibitor, partial curve] |  |
| CCOC(=O)c1ccc(N2C(=O)c3n[nH]c(C)c3C2c2ccc(O)cc2)cc1 (stereo not given) | active: 35.5 µM |  |
| Cn1nnc(NC(=S)NC(=O)c2ccccc2)n1 | inconclusive [inhibitor, partial curve] |  |
| COc1ccc(C2CC(c3c(O)cc(C)oc3=O)=NCCS2)c(OC)c1 (stereo not given) | inconclusive [inhibitor, partial curve] |  |
| Cc1ccc(N(C(=O)CCl)C(C(=O)NC2CCCCC2)c2cccnc2)cc1C (stereo not given) | active: 14.1 µM |  |
| O=C(O)c1ccc(Cl)c2c1C1C=CCC1C(c1ccccn1)N2 (stereo not given) | inconclusive [inhibitor, full curve] |  |
